We go through 4 molecules from publication PMC2720784 (Biochemistry, 2009).

What is called IC50 is the concentration that inhibits the measured activity by half. Read a high IC50 as weaker potency in that assay.

The target of assay [1] is T1, wild-type hNCRD (human SP-D trimeric neck+CRD) (Homo sapiens, UniProt P35247).
T1 sequence (P35247 223-375 limits assumed): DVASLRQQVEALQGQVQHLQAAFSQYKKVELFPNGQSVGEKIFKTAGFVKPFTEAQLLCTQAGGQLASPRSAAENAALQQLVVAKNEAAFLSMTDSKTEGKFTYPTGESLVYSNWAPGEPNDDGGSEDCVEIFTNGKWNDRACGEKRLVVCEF
Put plainly: biochemical.

The target of assay [2] is T1, wild-type hNCRD (human SP-D trimeric neck+CRD). The settings on record: p<0.001.
For another assay, the target named is T2, hNCRD fusion proteins (Homo sapiens, UniProt P35247).
T2 sequence (P35247 223-375 limits assumed): T1 sequence (P35247 223-375 limits assumed)

With `OC[C@H]1OC(O)[C@@H](O)[C@@H](O)[C@@H]1O` (stereo partly drawn) [D-mannose], it took 3800 µM to reach half-maximal inhibition in assay [1] (IC50).
In assay [1], `CO[C@H]1O[C@H](CO[C@H]2O[C@H](CO)[C@@H](O)[C@H](O)[C@@H]2O)[C@@H](O)[C@H](O[C@H]2O[C@H](CO)[C@@H](O)[C@H](O)[C@@H]2O)[C@@H]1O` [TM core, methyl 3,6-Di-O-(α-D-mannopyranosyl)-α-D-mannopyranoside] gave an IC50 of 1600 ± 150 µM. For the same molecule, the “higher affinity than for mannose” value in assay [2] is on record as “approximately 2 fold”.
With `OC[C@H]1O[C@H](O[C@@H]2C(O)O[C@H](CO)[C@@H](O)[C@@H]2O)[C@@H](O)[C@@H](O)[C@@H]1O` (stereo partly drawn) [alpha1–2 DM, alpha1–2 linked dimannose], the “higher affinity than for mannose” value in assay [2] is given as “approximately 2 fold”.
Manα1–2Manα1–2Man- [ligand 4]: the “rank of arrayed ligand for wild-type hNCRD” value on hNCRD fusion proteins is “best ligand”.
